Measurements published in PubChem BioAssay (NCI).
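Each compound was tested at five concentrations against cells in 96-well plates for 48 hours. GI50 is the concentration that inhibits growth by half.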 Certain results were filed several times, with different values. This is not the full list of results. An entry can have further records. For part of these data: Records of one sample usually come from different ranges of test concentrations, which the source does not state; some values may only mark the edge of a range.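 TGI marks complete inhibition of growth.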 For part of these data: Results that share an entry are repeated measurements across runs, samples, wells, individuals or studies. Brackets tell where a record comes from. The letters are not those of the source and start again with each entry.

Experiments:
Experiment in all cases: growth of human tumour cells (NCI), 48 h
[1] = tested on: T-47D breast
[2] = tested on: CCRF-CEM leukemia
[3] = tested on: COLO 205 colon
[4] = tested on: HCC-2998 colon
[5] = tested on: HL-60(TB) leukemia
[6] = tested on: K-562 leukemia
[7] = tested on: KM12 colon
[8] = tested on: MCF7 breast
[9] = tested on: MOLT-4 leukemia
[10] = tested on: RPMI-8226 leukemia
[11] = tested on: SK-MEL-2 melanoma
[12] = tested on: SW-620 colon

SMILES | GI50 [1] | TGI [2] | TGI [3] | TGI [4] | TGI [5] | TGI [6] | TGI [7] | TGI [8] | TGI [9] | TGI [10] | TGI [11] | TGI [12]
NC(=O)c1ccc2nc(-c3ccc(Oc4ccc(Cl)cc4)cc3)[nH]c2c1 | 4.49 µM [1 test] and > 75 µM [mean of 2 tests] |  |  |  |  |  |  |  |  |  |  | 
CCCCCCCCCCCC1CCCC(C)N1 (configuration not stated) |  | 5.7 µM [sample A] and 95.8 µM [sample B] | 2.93 µM [sample A] and 106 µM [sample B] | 4.3 µM [sample A] and 114 µM [sample B] | 3.02 µM [sample A] and 32.6 µM [sample B] | 7.64 µM [sample A] and 84.4 µM [sample B] | 8.63 µM [sample A] and 91.5 µM [sample B] | 12.4 µM [sample A] and 126 µM [sample B] | 4.73 µM [sample A] and 55.7 µM [sample B] | 4.82 µM [sample A] and 74.8 µM [sample B] | 14.9 µM [sample A] and 152 µM [sample B] | 9.25 µM [sample A] and 131 µM [sample B]
